# Target: hepatitis C virus RNA dependant polymerase (NS5B) (Hepatitis C virus genotype 1b, UniProt P26663)
# Test: Inhibition of NS5B RNA dependent RNA polymerase activity (SPA, oligo-U/polyA)
# Experimental: The compounds of the invention were tested for inhibitory activity against the hepatitis C virus RNA dependant polymerase (NS5B), according to the following assay:
# The substrates are: • a 12 nucleotide RNA oligo-uridylate (or oligo-uridine-monophosphate) (oligo-U) primer modified with biotin at the free 5′C position; • a complementary poly-adenylate (or adenosine monophosphate) (polyA) template of heterogeneous length (1000-10000 nucleotides); and UTP-[5,6 ^3H].
# Polymerase activity is measured as the incorporation of UMP-[5,6 ^3H] into the chain elongated from the oligo-U primer. The ^3H-labelled reaction product is captured by SPA-beads coated with streptavidin and quantified on the TopCount.
# The enzyme can be stored at −20° C. in storage buffer (see below).
# The biotinylated oligo-U12 primer, the Poly(A) template, and the UTP-[5,6 ^3H] were dissolved in water. The solutions can be stored at −80° C.
# Just prior to assay, test compounds of the invention were dissolved in assay buffer containing 15% DMSO.
# Just prior to assay, the substrates were mixed in assay buffer to the following concentrations:
# Just prior to assay, the RNA polymerase (NS5B) cocktail was prepared in assay buffer to the following specifications:
# The assay reaction was performed in a Microfluor™ white “U” bottom plate (Dynatech™ #7105), by successively adding: • 20 μL of test compound cocktail; • 20 μL of substrate cocktail; and • 20 μL of enzyme cocktail (final [NS5B] in assay=10 nM; final [n-dodecyl maltoside] in assay=0.33%; final DMSO in assay=5%).
# The reaction was incubated at room temperature for 1.5 hours. STOP solution (20 μL; 0.5 M EDTA, 150 ng/μl tRNA) was added, followed by 30 μl streptavidin coated PVT beads (8 mg/ml in 20 mM Tris-HCl, pH 7.5, 25 mM KCl, 0.025% NaN3). The plate was then shaken for 30 minutes. A solution of CsCl was added (70 μL, 5 M), to bring the CsCl concentration to 1.95 M. The mixture was then allowed to stand for 1 hour. The beads were then counted on a Hewlett Packard TopCount™ instrument using the following protocol: • Data mode: counts per minute • Scintillator: liq/plast • Energy range: low • Efficiency mode: normal • Region: 0-50 • Count delay: 5 minutes • Count time: 1 minute • Expected results: 6000 cpm/well • 200 cpm/well no enzyme control.
# Based on the results at ten different concentrations of test compound, standard concentration-% inhibition curves were plotted and analysed to determine IC50's for the compounds of the invention. For some compounds, the IC50 was estimated from two points.
row,SMILES,IC50 [nM]
1,O=C(NC1(C(=O)Nc2ccc3c(C(F)(F)F)cc(=O)oc3c2)CCCC1)c1ccc2c(c1)nc(-c1ccoc1)n2C1CCCCC1 [compound 1029],5000 to 25000
2,COCc1cc(=O)oc2cc(NC(=O)C3(NC(=O)c4ccc5c(c4)nc(-c4ccoc4)n5C4CCCCC4)CCCC3)ccc12 [compound 1030],500 to 5000
3,COC(=O)c1ccc(-c2ccc(NC(=O)C3(NC(=O)c4ccc5c(c4)nc(-c4ccoc4)n5C4CCCCC4)CCCC3)cc2)o1 [compound 1031],500 to 5000
4,C[C@@H](NC(=O)c1ccc2c(c1)nc(-c1ccoc1)n2C1CCCCC1)C(=O)Nc1ccc(-c2ccoc2)cc1 [compound 1032],500 to 5000
5,CCOC(=O)/C=C/c1ccc(NC(=O)C2(NC(=O)c3ccc4c(c3)nc(-c3ccoc3)n4C3CCCCC3)CCCC2)cc1 [compound 1033],5000 to 25000
6,CCOC(=O)c1sc2ccc(NC(=O)C3(NC(=O)c4ccc5c(c4)nc(-c4ccoc4)n5C4CCCCC4)CCCC3)cc2c1C [compound 1034],500 to 5000
7,C[C@@H](NC(=O)c1ccc2c(c1)nc(-c1ccoc1)n2C1CCCCC1)C(=O)Nc1ccc(C2=CC(=O)OC2)cc1 [compound 1035],500 to 5000
8,CSc1nc2ccc(NC(=O)C3(NC(=O)c4ccc5c(c4)nc(-c4ccoc4)n5C4CCCCC4)CCCC3)cc2s1 [compound 1036],500 to 5000
9,O=C(NC1(C(=O)Nc2ccc(Cl)nc2)CCCC1)c1ccc2c(c1)nc(-c1ccoc1)n2C1CCCCC1 [compound 1037],500 to 5000
10,O=C(NC1(C(=O)Nc2ccc3ccc(=O)oc3c2)CCCC1)c1ccc2c(c1)nc(-c1ccoc1)n2C1CCCCC1 [compound 1038],500 to 5000
11,C[S+]([O-])c1nc2ccc(NC(=O)C3(NC(=O)c4ccc5c(c4)nc(-c4ccoc4)n5C4CCCCC4)CCCC3)cc2s1 (centres unmarked) [compound 1039],500 to 5000
12,O=C(O)/C=C/c1ccc(N2CCOCC2)c(NC(=O)C2(NC(=O)c3ccc4c(c3)nc(-c3ccoc3)n4C3CCCCC3)CCCC2)c1 [compound 1040],5000 to 25000
13,O=C(NC1(C(=O)Nc2ccc3c(c2)cc(C(=O)O)n3Cc2ccccc2)CCCC1)c1ccc2c(c1)nc(-c1ccoc1)n2C1CCCCC1 [compound 1041],500 to 5000
14,O=C(NC1(C(=O)Nc2ccc(N3CCOCC3)nc2)CCCC1)c1ccc2c(c1)nc(-c1ccoc1)n2C1CCCCC1 [compound 1042],500 to 5000
15,COC(CC(=O)O)c1ccc(NC(=O)C2(NC(=O)c3ccc4c(c3)nc(-c3ccoc3)n4C3CCCCC3)CCCC2)cc1 (centres unmarked) [compound 1043],500 to 5000
16,O=C(NC1(C(=O)Nc2ccc(C(=O)O)c(Cl)c2)CCCC1)c1ccc2c(c1)nc(-c1ccoc1)n2C1CCCCC1 [compound 1044],500 to 5000
17,COc1ccc(C(=O)O)cc1NC(=O)C1(NC(=O)c2ccc3c(c2)nc(-c2ccoc2)n3C2CCCCC2)CCCC1 [compound 1045],500 to 5000
18,O=C(O)CNC(=O)c1ccc(NC(=O)C2(NC(=O)c3ccc4c(c3)nc(-c3ccoc3)n4C3CCCCC3)CCCC2)cc1 [compound 1046],500 to 5000
19,COc1cc(C(=O)O)ccc1NC(=O)C1(NC(=O)c2ccc3c(c2)nc(-c2ccoc2)n3C2CCCCC2)CCCC1 [compound 1047],500 to 5000
20,O=C(O)c1cc(NC(=O)C2(NC(=O)c3ccc4c(c3)nc(-c3ccoc3)n4C3CCCCC3)CCCC2)cc(C(=O)O)c1 [compound 1048],500 to 5000
21,O=C(NC1(C(=O)Nc2ccc(-c3ccc(O)cc3)cc2)CCCC1)c1ccc2c(c1)nc(-c1ccoc1)n2C1CCCCC1 [compound 1049],500 to 5000
22,O=C(NC1(C(=O)Nc2cc(C(=O)O)n[nH]2)CCCC1)c1ccc2c(c1)nc(-c1ccoc1)n2C1CCCCC1 [compound 1050],500 to 5000
23,O=C(O)CCc1cccc(NC(=O)C2(NC(=O)c3ccc4c(c3)nc(-c3ccoc3)n4C3CCCCC3)CCCC2)c1 [compound 1051],500 to 5000
24,COC(=O)c1cc(NC(=O)C2(NC(=O)c3ccc4c(c3)nc(-c3ccoc3)n4C3CCCCC3)CCCC2)cc(C(=O)O)c1 [compound 1052],500 to 5000
25,CC(NC(=O)c1ccc2c(c1)nc(-c1ccoc1)n2C1CCCCC1)C(=O)Nc1ccc(C(=O)O)cc1 (centres unmarked) [compound 1053],500 to 5000

row,SMILES,IC50 [nM]
1,CC(NC(=O)c1ccc2c(c1)nc(-c1ccoc1)n2C1CCCCC1)C(=O)Nc1ccc(/C=C/C(=O)O)cc1 (centres unmarked) [compound 1054],< 500
2,CC(NC(=O)c1ccc2c(c1)nc(-c1ccoc1)n2C1CCCCC1)C(=O)Nc1cc(C(=O)O)ccc1O (centres unmarked) [compound 1055],500 to 5000
3,C[C@H](NC(=O)c1ccc2c(c1)nc(-c1ccoc1)n2C1CCCCC1)C(=O)Nc1ccc(/C=C/C(=O)O)cc1 [compound 1056],< 500
4,C[C@@H](NC(=O)c1ccc2c(c1)nc(-c1ccoc1)n2C1CCCCC1)C(=O)Nc1ccc(/C=C/C(=O)O)cc1 [compound 1057],< 500
5,CC(NC(=O)c1ccc2c(c1)nc(-c1ccoc1)n2C1CCCCC1)C(=O)Nc1cccc(OCC(=O)O)c1 (centres unmarked) [compound 1059],500 to 5000
6,CC(NC(=O)c1ccc2c(c1)nc(-c1ccoc1)n2C1CCCCC1)C(=O)Nc1ccc(-c2ccc(C(=O)O)o2)cc1 (centres unmarked) [compound 1060],< 500
7,CC(NC(=O)c1ccc2c(c1)nc(-c1ccoc1)n2C1CCCCC1)C(=O)Nc1cccc(-c2ccc(C(=O)O)o2)c1 (centres unmarked) [compound 1061],< 500
8,O=C(O)/C=C/c1ccc(NC(=O)C(Cc2ccccc2)NC(=O)c2ccc3c(c2)nc(-c2ccoc2)n3C2CCCCC2)cc1 (centres unmarked) [compound 1062],500 to 5000
9,CCCC(NC(=O)c1ccc2c(c1)nc(-c1ccoc1)n2C1CCCCC1)C(=O)Nc1ccc(/C=C/C(=O)O)cc1 (centres unmarked) [compound 1063],< 500
10,O=C(O)/C=C/c1ccc(NC(=O)[C@H](CCO)NC(=O)c2ccc3c(c2)nc(-c2ccoc2)n3C2CCCCC2)cc1 [compound 1064],500 to 5000
11,C[C@@H](NC(=O)c1ccc2c(c1)nc(-c1ccoc1)n2C1CCCCC1)C(=O)Nc1cccc(-c2ccc(C(=O)O)o2)c1 [compound 1065],< 500
12,C[C@@H](NC(=O)c1ccc2c(c1)nc(-c1ccoc1)n2C1CCCCC1)C(=O)Nc1ccc(-c2ccc(C(=O)O)o2)cc1 [compound 1066],< 500
13,C[C@@H](NC(=O)c1ccc2c(c1)nc(-c1ccoc1)n2C1CCCCC1)C(=O)Nc1ccc(CCC(=O)O)cc1 [compound 1067],500 to 5000
14,"O=C(O)/C=C/c1ccc(NC(=O)C2(NC(=O)c3ccc4c(c3)nc(-c3ccoc3)n4C3CCCCC3)CC2)cc1 [compound 1070, (E)-3-(4-{[1-(1-{[1-(1-Cyclohexyl-2-furan-3-yl-1H-benzoimidazol-5-yl)-methanoyl]-amino}-cyclopropyl)-methanoyl]-amino}-phenyl)-acrylic acid]",< 500
15,O=C(O)/C=C/c1ccc(NC(=O)C2(NC(=O)c3ccc4c(c3)nc(-c3ccoc3)n4C3CCCCC3)CCCC2)cc1 [compound 1071],< 500
16,O=C(O)/C=C/c1ccc(NC(=O)C2(NC(=O)c3ccc4c(c3)nc(-c3ccoc3)n4C3CCCCC3)CCCCC2)cc1 [compound 1072],< 500
17,C[C@@H](NC(=O)c1ccc2c(c1)nc(-c1ccoc1)n2C1CCCCC1)C(=O)Nc1ccc(SCC(=O)O)cc1 [compound 1073],500 to 5000
18,Cc1oc(-c2cccc(NC(=O)[C@@H](C)NC(=O)c3ccc4c(c3)nc(-c3ccoc3)n4C3CCCCC3)c2)cc1C(=O)O [compound 1074],500 to 5000
19,"CC[C@@H](NC(=O)c1ccc2c(c1)nc(-c1ccoc1)n2C1CCCCC1)C(=O)Nc1ccc(/C=C/C(=O)O)cc1 [compound 1075, (E)-3-[4-((R)-2-{[1-(1-Cyclohexyl-2-furan-3-yl-1H-benzoimidazol-5-yl)-methanoyl]-amino}-butanoylamino)-phenyl]-acrylic acid]",< 500
20,CCC[C@@H](NC(=O)c1ccc2c(c1)nc(-c1ccoc1)n2C1CCCCC1)C(=O)Nc1ccc(/C=C/C(=O)O)cc1 [compound 1076],500 to 5000
21,Cn1c(C(=O)O)cc2cc(NC(=O)C3(NC(=O)c4ccc5c(c4)nc(-c4ccoc4)n5C4CCCCC4)CCCC3)ccc21 [compound 1077],< 500
22,O=C(NC1(C(=O)Nc2ccc3nc(S)sc3c2)CCCC1)c1ccc2c(c1)nc(-c1ccoc1)n2C1CCCCC1 [compound 1078],500 to 5000
23,O=C(O)/C=C/c1ccc(NC(=O)CNC(=O)c2ccc3c(c2)nc(-c2ccoc2)n3C2CCCCC2)cc1 [compound 1079],< 500
24,O=C(NC1(C(=O)Nc2ccc(-c3ccc(C(=O)O)o3)cc2)CCCC1)c1ccc2c(c1)nc(-c1ccoc1)n2C1CCCCC1 [compound 1080],< 500
25,O=C(NC1(C(=O)Nc2ccc3[nH]c(C(=O)O)cc(=O)c3c2)CCCC1)c1ccc2c(c1)nc(-c1ccoc1)n2C1CCCCC1 [compound 1081],< 500

# From US6841566B2, “Viral polymerase inhibitors” (Boehringer Ingelheim, Ltd., priority 2001, dated 2005)
